Results on 24 compounds are retold here after PubChem BioAssay AID360 (National Center for Advancing Translational Sciences (NCATS), 2006).

Molecules are shown by their SMILES. The campaign covered roughly 48,000 compounds. About 550 (1.1%) were called active. Inconclusive results (about 4%) are left out. Rule as the data show it: active = potency below about 15 µM; inconclusive = mostly about 16 µM to 33 µM; inactive = weaker than that. The list shows a part of the results.
Potency is read from the fitted curve at half-maximal effect.

Chain of UniProt P04062 (P04062 whole entry, looked up): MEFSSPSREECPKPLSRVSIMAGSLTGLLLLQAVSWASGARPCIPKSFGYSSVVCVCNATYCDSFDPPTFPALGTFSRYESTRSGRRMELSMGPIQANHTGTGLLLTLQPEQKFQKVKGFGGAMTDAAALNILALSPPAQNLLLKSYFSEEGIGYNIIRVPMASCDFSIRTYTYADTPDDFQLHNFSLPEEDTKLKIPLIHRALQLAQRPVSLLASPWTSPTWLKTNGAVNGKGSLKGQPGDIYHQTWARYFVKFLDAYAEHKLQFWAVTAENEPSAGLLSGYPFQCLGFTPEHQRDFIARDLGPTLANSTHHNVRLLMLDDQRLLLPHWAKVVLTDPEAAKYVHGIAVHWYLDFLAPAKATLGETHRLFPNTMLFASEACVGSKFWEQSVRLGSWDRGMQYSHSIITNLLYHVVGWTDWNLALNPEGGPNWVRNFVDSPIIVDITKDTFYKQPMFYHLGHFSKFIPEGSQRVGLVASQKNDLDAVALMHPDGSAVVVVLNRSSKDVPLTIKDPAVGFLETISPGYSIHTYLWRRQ

The test concerns the target Lysosomal acid glucosylceramidase (Homo sapiens) (UniProt P04062). In words: Glucocerebrosidase.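 Also: the screen sought inhibitors.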 The note with it: purified enzyme, resorufin glucoside fluorescence (screen aimed at inhibitors), 20 min. The method in brief:
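Wild-type enzyme at 0.2 nM final in 50mM citric acid/KH2PO4, 10mM sodium taurocholate, 0.01% tween-20, pH 5.9, with resorufin beta-D-glucopyranoside at 30 uM final. Compounds titrated, 20 min at RT, red fluorescence read; AC50 from titration.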
For `Cc1cc(C)c(C#N)c(SCS(=O)c2ccc(C(C)(C)C)cc2)n1` (centres undefined), the Potency is inactive: > 76.9 µM.

Take `Cc1cc(C)c2c(n1)nn1c(NCCOCCO)cc(C)nc21`: the Potency is inactive: > 76.9 µM.

`CN(C(=O)c1ccc(S(=O)(=O)NC2CCCC2)cc1)C1CCCCC1`: the Potency is inactive: > 76.9 µM.

On to `COCCCNC(c1ccccc1)c1ccncc1` (centres undefined), for which the Potency is inactive: > 76.9 µM.

As for `O=C(CSc1nnnn1-c1cccc2ccccc12)N1CCOCC1`, the Potency is inactive: > 76.9 µM.

Regarding `COCCn1c(=O)[nH]c2cc(C(=O)NCCN3CCN(c4ccccc4F)CC3)ccc2c1=O`, the Potency is inactive: > 76.9 µM.

Regarding `O=C(CSc1nnc(CNc2ccc(F)cc2)o1)N1CCN(C(=O)c2ccco2)CC1`, the Potency was inactive: > 76.9 µM.

On to `CCn1c(CNc2ccc(Cl)cc2)nnc1SCC(=O)NCc1ccccc1`, for which the Potency is inactive: > 76.9 µM.

In the case of `CC1(C)CC(=O)C2=C(C1)OC(N)=C(C#N)C21C(=O)N2CCCc3cccc1c32` (centres undefined), the Potency was inactive: > 76.9 µM.

As to `COc1ccc(OCC(=O)Nc2ccc(S(=O)(=O)Nc3cc(C)nc(C)n3)cc2)cc1`, the Potency was inactive: > 76.9 µM.

As to `COc1ccc(N(CN2C(=O)c3ccccc3C2=O)C(=O)C(C)C)cc1`, the Potency was inactive: > 76.9 µM.

With `CN1C(=O)c2ccccc2C(C(=O)NCc2ccco2)C1c1c[nH]c2ccccc12` (centres undefined), the Potency is inactive: > 76.9 µM.

On to `CCc1c(C)nc2ncnn2c1N1CCC(C(=O)NCc2ccc3c(c2)OCO3)CC1`, for which the Potency is inactive: > 76.9 µM.

Regarding `Cc1cc(NC(=O)c2ccco2)ncc1NC(=O)Cc1ccccc1`, the Potency is inactive: > 76.9 µM.

On to `CCOC(=O)c1cccc(NC(=O)CSc2nnc(-c3ccoc3C)n2CCOC)c1`, for which the Potency was inactive: > 76.9 µM.

For `Cc1c2c(nc3nc4ccccc4n13)CCCC2=O`, the Potency was inactive: > 76.9 µM.

Regarding `Cn1cnnc1SCC(=O)N(Cc1ccc2c(c1)OCO2)C1(C(=O)NC2CCCCC2)CCCC1`, the Potency was inactive: > 76.9 µM.

Take `CCOC(=O)C(C)n1nc(C)c2sc3ccccc3c2c1=O` (centres undefined): the Potency is inactive: > 76.9 µM.

Regarding `CCCN1CCN(CCCNC(=O)CN2C(=O)COc3ccccc32)CC1`, the Potency is inactive: > 76.9 µM.

As for `CC(NS(C)(=O)=O)C(c1cccs1)N1CCN(c2ccccc2F)CC1` (centres undefined), the Potency was inactive: > 76.9 µM.

Regarding `O=C(CC12CC3CC(CC(C3)C1)C2)N1CCCOC1`, the Potency is inactive: > 76.9 µM.

On to `COC(=O)c1cc(Br)c(=O)n(CCN(C(C)C)C(C)C)c1`, for which the Potency was inactive: > 76.9 µM.

In the case of `CCOC(=O)C1CCCN(C(=O)c2cc(-c3ccccc3)on2)C1` (centres undefined), the Potency is inactive: > 76.9 µM.

For the compound `COc1ccc(OCCCN2CCCC(C)C2)cc1` (centres undefined), the Potency is inactive: > 76.9 µM.
